Experimental data from patent US20100113370A1, “METHODS AND COMPOUNDS FOR MODULATING INFLAMMATORY PROCESSES” (priority 2007, published 2010).
One block for each compound: values may come before it.

Tests used:
ABCC4 [1] = target: T1, ABCC4 (Homo sapiens, UniProt O15439); conditions: for inhibition at 10 µM: read-out: inhibition of ATP-dependent [^3H]LTB4 transport
T1 sequence (O15439 1-1325): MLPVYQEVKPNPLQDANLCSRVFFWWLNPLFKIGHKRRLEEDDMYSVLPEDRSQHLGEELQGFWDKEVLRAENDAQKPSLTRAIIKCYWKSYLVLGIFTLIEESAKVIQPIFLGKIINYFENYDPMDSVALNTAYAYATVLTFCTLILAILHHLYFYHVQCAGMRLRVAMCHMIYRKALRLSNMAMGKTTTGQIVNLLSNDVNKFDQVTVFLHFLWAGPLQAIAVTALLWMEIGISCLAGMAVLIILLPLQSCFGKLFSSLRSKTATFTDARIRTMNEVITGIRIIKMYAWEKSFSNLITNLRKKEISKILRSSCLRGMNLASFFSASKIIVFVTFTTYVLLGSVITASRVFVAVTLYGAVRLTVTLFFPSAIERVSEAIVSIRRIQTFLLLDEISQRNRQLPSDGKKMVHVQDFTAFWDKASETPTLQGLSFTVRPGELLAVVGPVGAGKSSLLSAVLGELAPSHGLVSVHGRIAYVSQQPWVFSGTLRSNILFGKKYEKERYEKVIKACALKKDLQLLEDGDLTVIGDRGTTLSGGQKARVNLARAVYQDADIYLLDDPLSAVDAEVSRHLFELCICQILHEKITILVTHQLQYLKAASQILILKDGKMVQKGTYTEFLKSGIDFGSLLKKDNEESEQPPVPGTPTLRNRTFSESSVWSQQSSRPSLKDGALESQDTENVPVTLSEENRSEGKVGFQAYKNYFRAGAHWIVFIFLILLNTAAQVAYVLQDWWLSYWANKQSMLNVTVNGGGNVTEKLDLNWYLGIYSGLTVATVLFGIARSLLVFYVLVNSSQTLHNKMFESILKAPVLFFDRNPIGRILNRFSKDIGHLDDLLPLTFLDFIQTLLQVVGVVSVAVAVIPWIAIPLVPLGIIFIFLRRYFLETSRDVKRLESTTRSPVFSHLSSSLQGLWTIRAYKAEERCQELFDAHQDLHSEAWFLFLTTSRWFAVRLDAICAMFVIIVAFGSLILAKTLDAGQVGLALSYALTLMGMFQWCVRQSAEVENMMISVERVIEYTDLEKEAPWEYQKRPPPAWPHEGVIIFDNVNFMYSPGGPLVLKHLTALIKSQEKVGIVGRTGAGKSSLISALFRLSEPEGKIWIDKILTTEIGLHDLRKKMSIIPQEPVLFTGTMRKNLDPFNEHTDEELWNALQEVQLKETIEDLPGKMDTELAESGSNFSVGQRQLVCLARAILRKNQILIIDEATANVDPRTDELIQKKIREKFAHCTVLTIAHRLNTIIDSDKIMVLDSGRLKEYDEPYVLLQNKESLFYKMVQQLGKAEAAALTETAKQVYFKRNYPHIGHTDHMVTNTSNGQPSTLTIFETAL

ABCC4 [2] = target: T1, ABCC4; assay: ATP-dependent substrate transport and kinetic analysis in membrane vesicles from V79 cells with recombinant ABCC4; format: biochemical; parameters: expressed in transfected cells; host or cells: Chinese hamster lung V79 fibroblasts (V79-ABCC4), inside-out membrane vesicles; conditions: for ATP-dependent LTC4 accumulation: 100 nM, after 5 min
ABCC4 [3] = target: T1, ABCC4; assay: ATP-dependent substrate transport and kinetic analysis in plasma membrane vesicles from human platelets (endogenous ABCC4)
ABCC4 [4] = target: T1, ABCC4; assay: Inhibition of ATP-dependent [3H]LTC4 transport into plasma membrane vesicles from human platelets; format: biochemical; parameters: expressed in transfected cells; host or cells: Chinese hamster lung V79 fibroblasts (V79-ABCC4), inside-out membrane vesicles; conditions: 20 μM; vesicles from human platelets

- inhibition at 10 µM (ABCC4 [1]): 68%
Compound: COc1ccc2c(c1)c(CC(=O)O)c(C)n2C(=O)c1ccc(Cl)cc1 [Indomethacin, indomethacin]

- LTC4 transport rate, V79-ABCC4 versus V79-Co vesicles (ABCC4 [2]; 100 nM LTC4): 2.2 fold
- ATP-dependent LTC4 accumulation (ABCC4 [2]; vesicles from ABCC4-transfected V79 cells): 32.3±3.2 pmol×mg protein^−1
- ATP-dependent LTC4 accumulation (ABCC4 [2]; vesicles from vector-transfected V79 cells): 14±0.5 pmol×mg protein^−1
- Vmax (LTC4 transport) (ABCC4 [2]; V79-ABCC4): 37.4 pmol×mg protein^−1×min^−1
- Km (ABCC4 [2]; vesicles from V79-ABCC4, 0.1 to 2 μM LTC4, read-out: Km value for ABCC4 (LTC4 transport)): 0.13 ± 0.02 µM
- Vmax (LTC4 transport) (ABCC4 [3]; human platelets): 9.7 pmol×mg protein^−1×min^−1
- Km (ABCC4 [3]; read-out: Km value for ABCC4 (LTC4 transport), vesicles from human platelets, 0.1 to 2 μM LTC4): 0.32 ± 0.03 µM
- LTC4 transport rate (ABCC4 [3]; vesicles from human platelets, 100 nM [^3H]LTC4): 0.6 pmol×mg protein^−1×min^−1
Compound: CCCCC/C=C\C\C=C/C=C/C=C/[C@@H](SC[C@H](NC(=O)CC[C@H](N)C(=O)O)C(=O)NCC(=O)O)[C@@H](O)CCCC(=O)O [LTC4, leukotriene C4]

- ATP-dependent transport rate of [^3H]LTD4 (ABCC4 [2]; vesicles from V79-ABCC4 cells, absence of GSH): 0.6 pmol×mg protein^−1×min^−1
Compound: CCCCC/C=C\C\C=C/C=C/C=C/[C@@H](SC[C@H](N)C(=O)NCC(=O)O)[C@@H](O)CCCC(=O)O [LTD4, leukotriene D4]

- inhibition at 20 µM (ABCC4 [4]): 32%
- inhibition of LTB4 transport (in words) (ABCC4 [1]; presence of GSH): effective inhibitors
Compound: CN(C)C(=O)CCSC(SCCC(=O)O)c1cccc(/C=C/c2ccc3ccc(Cl)cc3n2)c1 (stereo not shown) [MK571]

- inhibition at 10 µM (ABCC4 [1]): 74%
Compound: CSc1ccc(/C=C2/C(C)=C(CC(=O)O)c3cc(F)ccc32)cc1 [Sulindac sulfide, sulindac sulfide]
